According to ChEMBL document CHEMBL4888484, “Replenishing the malaria drug discovery pipeline: Screening and hit evaluation of the MMV Hit Generation Library 1 (HGL1) against asexual blood stage Plasmodium falciparum ,using a nano luciferase reporter read-out” (2022):
Out of some 150,000 compounds screened, about 540 (0.36%) showed an effect of 50% or more. The list shows a part of the results.

The compounds below were run on Plasmodium falciparum (assay: Primary screen in NF54 nanoGlo assay, in single point, at 2uM, 72h; a lower Z score goes with more inhibition). Details: timepoint 72 hour.
Assay type: functional, Erythrocyte

Structure (SMILES)	% Inhibition [%]	Z score
CCC1CCCC(CNCC2(S(C)(=O)=O)CCOCC2)C1 (centres undefined)	5	-0.44
Cc1cccc(CN2CCC[C@@](O)(CN3CCN(CC4CC4)CC3)C2=O)c1	-10	1.1
OCCN(CCO)Cc1c[nH]nc1-c1cccc2ccccc12	-4	0.56
Cc1ccc(COc2cccc(CNCc3cccnc3)c2)cc1	10	-1.43
CCOC1CC(NC(C(N)=O)c2ccccc2)C1(C)C (centres undefined)	-16	1.58
O=C(CCC1CCCC1)N1CCC(c2c(CO)cnn2-c2ccccc2)CC1	-1	0.07
CCCc1ccc(CN(CC)CCn2cccn2)o1	-3	0.62
CC(C)Oc1cc(N[C@H]2CCN(C(=O)c3ccccn3)C[C@@H]2O)nc(N)n1	-5	0.86
CCc1cc2c(NCc3nccc(C(F)(F)F)n3)ncnc2s1	-8	1.24
Cc1csc(Cn2ccc(-c3cccc(-c4nc(C)cnc4C)c3)n2)n1	-9	1.19
COc1ccsc1C(=O)NCCc1ccc2c(c1)OCO2	-7	1.14
O=C(NCC(F)(F)F)N1CCC[C@H]1c1nnc2ccccn12	-6	0.88
CNC(=O)c1cccc(C(=O)N2CC[S+]([O-])CC(C)C2)c1 (centres undefined)	-10	1.83
CN1CCN(c2c(F)cc(C(=O)Nc3nc(-c4ccccc4)cs3)c(F)c2F)CC1	3	-0.36
O=C(NCc1cccnc1)N(Cc1cccc(O)c1)CC1CC1	-12	1.66
Cc1ncc(CNS(=O)(=O)CC2(C)CCCCC2)o1	0	0.05
Cc1c(Cl)cccc1N1C(=O)[C@H]2[C@@H](C1=O)[C@]1(C(=O)Nc3ccccc31)N1CCC[C@@H]21	-10	1.25
Cc1nc(CC(C)C)cc(C(=O)NCc2csc(C)n2)n1	-7	1.47
O=C(Cc1ccco1)NC1CC(NCC(F)(F)F)C1 (centres undefined)	-6	0.64
COCC1(c2noc([C@@]34CCCC[C@@H]3NCC4)n2)CCCC1	-9	1.25
O=C(NCC1(CCO)CC1)c1ncoc1C(F)(F)F	-8	1.09
Nc1c(Br)cncc1C(=O)O	8	-0.96

Structure (SMILES)	% Inhibition [%]	Z score
O=S(=O)(NCCCOCc1ccco1)N1CCCCC1	-8	1.08
Cc1oc(C)c(C(=O)Nc2nc(-c3cccc(-n4cnnn4)c3)cs2)c1Br	-42	4.87
C[C@H]1CN(Cc2ccc3c4c(cccc24)C(=O)OC3)CCN1	1	-0.26
CCC(CC)C(=O)N1CC[C@H](N(CCN2CCOCC2)S(C)(=O)=O)C1	-2	0.25
O=C(CC1CCCC1)NC1CCN(C(=O)c2ccc3[nH]nnc3c2)CC1	-17	2.43
CCc1ccc(CNC(=O)[C@@H]2CCCCC(=O)N2C)cc1	-4	0.51
C[C@H](NCc1cccc(-c2cccnc2)c1)c1cccc(O)c1	6	-0.54
Cc1ccc2nc(-c3ccc(Cl)cc3)cc(C(=O)Oc3ccc(C)c(C)c3)c2c1	6	-0.72
O=C(CCCc1nnc2ccccn12)Nc1nc(CCC2CCCC2)n[nH]1	3	-0.37
Cc1nnc(-c2cccc(NC(=O)[C@@H]3CCCCN3Cc3nc[nH]c3C)c2)s1	-23	3.06
Cc1nc2ccccn2c1CN1CCN(Cc2ccccc2F)C(=O)C1	-13	2.64
Cc1cc(C(=O)Nc2ccc([C@H]3OCC(=O)N(C(C)C)[C@@H]3CO)cc2)nn1C	33	-3.7
CC(=O)Nc1ccc2c(c1)cc(C(=O)Nc1ccccc1)n2Cc1cccc(F)c1	-5	0.93
CC(C)c1cc([C@@H]2CCCN2C(=O)c2ccco2)on1	-10	1.28
CC[C@H](C)N(CC(=O)O)Cc1nc(CCC(C)C)no1	-20	2.66
Cc1nc(-c2cccc(CNc3cc(C(C)C)nc4ncnn34)c2)cs1	-11	1.73
CN(C)[C@H]1CCCN(c2cc(C3CC3)ncn2)CC1	-19	2.02
CCCOc1ccccc1[C@H](C)Nc1nnc(C2CC2)o1	-8	1.12
CCc1cc(NCC2(O)CCN(C(=O)c3nccc4occc34)CC2)nc(C)n1	19	-2.46
Cc1cccc(CNC(=O)N[C@H]2CC[C@@H](CO)C2)c1Br	-7	1.01
CC(C)C(=O)N(CC(=O)Nc1nc(-c2ccccc2)cn1-c1ccc(F)cc1)CC1CC1	-8	0.9
Cc1ncsc1CN(C)C(=O)N[C@H]1CC(=O)N(c2ccccc2)C1	5	-0.71

Structure (SMILES)	% Inhibition [%]	Z score
Cc1nc2ncnn2c(Oc2ccc(-n3cccn3)cc2)c1C	-18	2.14
CN(CCCNC(=O)NC1CC2CCC1O2)c1cccc(F)c1 (centres undefined)	-18	1.5
Cc1cccc(-c2nocc2CCC(=O)O)c1	-30	2.61
Cc1cc(-c2nc(C)nn2C(C)(C)C)c2c(C)nn(C)c2n1	-11	1.56
COc1cc(C)ccc1OCCN1CC[C@]2(CCCO2)CCC1=O	-1	0.16
O=C1O[C@H]2CN(CCCc3ccccc3)C[C@H]2N1Cc1ccccn1	-16	1.43
Cc1cccc2oc(Cn3cnc(-c4ccccc4)c3[C@H]3CCOC3)nc12	-10	0.99
CC1CN(C)CCN1C(=O)CCCCC(=O)N1CCN(C)CC1C (centres undefined)	-12	1.92
CCc1nnsc1C(=O)N[C@@H](C)c1cccs1	4	-0.59
Cc1cc(NCCN2CCC[C@H](C)C2)nc(N(C)C)n1	11	-1.27
COc1ccc([C@H](C)NCc2cnc3c(c2)c(C)nn3C)c(C)c1OC	3	-0.26
COCCN(CC(N)=O)CC(=O)N1CCCCCC1	-11	1.37
C[C@H]1Cc2ccccc2N1C(=O)c1ccc(=O)n(CCC(=O)NCc2ccccc2)n1	5	-0.76
CC(C)(C)OC(=O)N1CCC[C@@H]1CCCNC(=O)C1CC(=O)C1	-1	0.12
CN(CC1CC1)C(=O)NC1C2CCCOC2C1(C)C (centres undefined)	-7	0.97
CCOC(=O)c1cnc(C)c(NC(=O)NCc2nncn2C)c1	-7	1.17
CCCCCOCC(=O)N[C@H](C)c1cnccn1	-8	1.31
Cc1ccc(-c2nn(CN3CCC(Cc4ccccc4)CC3)c(=S)o2)cc1C	-8	1.5
COc1ccc(-c2cn3ccccc3c2S(=O)(=O)c2ccc(F)cc2)cc1OC	-6	0.97
Cc1nc(C(C)(C)NS(C)(=O)=O)sc1C	-4	0.52
CCCc1nnc(NC(=O)N(C)Cc2noc(-c3ccccc3)n2)[nH]1	-14	1.95
COc1ccc(-c2cc3cc(OC)c(OC)cc3c(Cc3cccc4ccccc34)n2)cc1	-7	1.17

Structure (SMILES)	% Inhibition [%]	Z score
Cn1cc(CNc2cc(F)ccc2N2CCCCC2)cn1	-5	0.56
CC(C)C(=O)NCCN(C)C(=O)C#C[C@H]1CCOC1	-5	0.6
CCc1noc2nc(C)n(CC(=O)NCCc3ccccc3)c(=O)c12	-5	0.69
O=C(NCc1ccco1)c1nc(CCS(=O)(=O)c2ccccc2)no1	-13	1.76
O=C(NC[C@@H](CO)Cc1ccccc1)c1nscc1Br	-8	1.15
CCN(CC)CCN(C(=O)c1ccc(S(=O)(=O)N2CCCCC2)cc1)c1nc2cc3c(cc2s1)OCCO3	31	-3.94
Cc1cc(Cl)ccc1S(=O)(=O)N1CCc2nnc([C@H]3CCN(C(C)C)C3)n2CC1	30	-4.06
c1ccc(C(c2ccccc2)c2noc3c2CN(Cc2cccnc2)CC3)cc1	9	-1.11
Cc1ccccc1C(O)CNS(=O)(=O)N1CCCC(C)C1 (centres undefined)	-1	0.11
O=C(c1c(Cl)cccc1Cl)N1CCn2cncc2C1	0	0.1
CN(Cc1ccccc1)[C@H]1CCN(CC(=O)Nc2nccs2)C1	-14	2.75
NC(=O)c1c(NC(=O)c2cc(-c3ccc(Cl)cc3Cl)nc3ccccc23)sc2c1CCCCC2	29	-3.9
O=C(O)c1cc2cc(Oc3ccccc3)ccc2n2nnnc12	-2	0.24
COc1ccccc1-c1nnc(-c2cnc3onc(C4CCCC4)c3c2)o1	-5	0.77
CCN1C(=O)CCN(C(=O)Nc2ccccc2)CC12CCOCC2	-9	1.13
O=C(CO)N1CCOc2c(F)cccc2C1	2	-0.3
O=C(NCc1cccnc1)c1cnn2c3c(cnc12)CCCC3	36	-5.27
Cc1ccc(NC(=O)CN2C(=O)COC2=O)c(C)c1	-12	1.4
CC(=O)Nc1nc(C(=O)N2CCCCO2)cs1	-3	0.38
Cc1onc(C(=O)N2CCC3(CCCN(C)[C@@H]3C(N)=O)CC2)c1COc1ccccc1	-5	1.03
CN(C)C(=O)CN(C)S(=O)(=O)Cc1ccccc1	-5	0.6
